PubChem BioAssay AID504332 (National Center for Advancing Translational Sciences (NCATS), 2011)
The campaign covered roughly 350,000 compounds. About 31,000 (8.9%) were called active. Inconclusive means that the source gave no clear call. Such entries were picked first, then a sample of the others. Calls come from the whole dose curve; as a rule, active = well fitted inhibition curve with a large enough effect; inconclusive = small, poorly fitted or top-dose-only effect; inactive = no such curve, though single readings can be large or run the other way. Potencies of inconclusive entries are doubtful fits and often do not repeat.

Biological target: Histone-lysine N-methyltransferase EHMT2 (Homo sapiens) (UniProt Q96KQ7)
Assay: qHTS Assay for Inhibitors of Histone Lysine Methyltransferase G9a; note: nearly all actives have a fitted effect of over 75% in size
Conditions: G9a H3K9 monomethylation, AlphaScreen, 2 h; activity, negative = inhibition: at 59 µM (top of the series) unless noted
Summary of the method: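 Quantitative HTS format: methyltransferase activity on a biotin-tagged H3K9 peptide is measured by AlphaScreen, using a rabbit anti-monomethyl-H3K9 antibody with streptavidin donor and anti-IgG acceptor beads. Final levels are 20 nM enzyme, 500 nM peptide, 20 uM SAM; 2 h RT.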
% is set by controls: 0 for no effect and ±100 for the full control effect; potency is the fitted concentration of half-maximal effect; tags give direction and shape of the fitted curve.

UniProt Q96KQ7, sequence (Q96KQ7 whole entry, looked up): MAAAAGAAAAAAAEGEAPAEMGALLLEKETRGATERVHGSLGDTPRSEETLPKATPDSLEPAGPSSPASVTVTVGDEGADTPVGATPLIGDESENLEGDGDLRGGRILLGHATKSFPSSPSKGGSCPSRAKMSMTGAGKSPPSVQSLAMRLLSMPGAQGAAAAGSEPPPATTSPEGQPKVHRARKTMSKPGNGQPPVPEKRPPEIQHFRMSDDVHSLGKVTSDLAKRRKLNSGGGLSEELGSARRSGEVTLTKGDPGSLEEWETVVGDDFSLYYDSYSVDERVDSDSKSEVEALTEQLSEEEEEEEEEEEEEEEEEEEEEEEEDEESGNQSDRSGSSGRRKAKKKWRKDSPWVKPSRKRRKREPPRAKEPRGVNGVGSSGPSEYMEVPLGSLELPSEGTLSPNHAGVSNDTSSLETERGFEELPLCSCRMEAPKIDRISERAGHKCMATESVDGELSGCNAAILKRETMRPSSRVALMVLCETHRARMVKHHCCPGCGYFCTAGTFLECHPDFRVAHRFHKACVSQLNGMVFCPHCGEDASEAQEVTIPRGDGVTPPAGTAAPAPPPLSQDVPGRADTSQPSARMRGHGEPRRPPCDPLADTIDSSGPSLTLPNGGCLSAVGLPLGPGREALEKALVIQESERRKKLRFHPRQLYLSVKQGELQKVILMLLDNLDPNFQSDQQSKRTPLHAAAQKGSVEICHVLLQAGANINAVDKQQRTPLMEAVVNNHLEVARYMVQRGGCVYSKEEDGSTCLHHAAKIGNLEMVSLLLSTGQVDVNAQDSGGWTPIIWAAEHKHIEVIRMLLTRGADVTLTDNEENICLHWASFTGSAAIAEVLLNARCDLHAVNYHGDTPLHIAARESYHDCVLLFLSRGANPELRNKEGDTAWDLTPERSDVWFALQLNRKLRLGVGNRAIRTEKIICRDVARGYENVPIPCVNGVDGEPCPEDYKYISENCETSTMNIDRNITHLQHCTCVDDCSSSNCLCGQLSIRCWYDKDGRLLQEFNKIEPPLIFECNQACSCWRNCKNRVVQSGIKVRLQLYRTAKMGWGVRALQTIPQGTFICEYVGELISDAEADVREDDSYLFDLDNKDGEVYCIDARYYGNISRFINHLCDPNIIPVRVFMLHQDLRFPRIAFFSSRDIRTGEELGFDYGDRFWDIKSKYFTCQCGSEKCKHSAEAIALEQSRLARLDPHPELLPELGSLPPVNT

Structure (SMILES)	Potency	activity, negative = inhibition
Cc1c(Cl)cn2c(=O)cc(CN3CCN(c4ccccc4)CC3)nc2c1Cl	active: 39.8 µM	–
CN(c1ccccc1)c1nc(N2CCCC2)nc(-n2ccnc2)n1	inconclusive: 35.5 µM [inhibitor, partial curve, poor fit]	–
COc1ccc(CNC(=O)c2cc3c(=O)[nH]c4ccccc4c3s2)cc1	inactive	–
CCOC(=O)c1ccccc1NC(=O)CCOc1ccccc1	inactive	–
O=C(Nc1nccs1)C(Br)C(Br)c1ccccc1 (stereo not given)	active: 3.55 µM	–
O=C(CN(C(=O)CCC(=O)Nc1ccccn1)c1cccc(F)c1)NCc1ccco1	inconclusive: 39.8 µM [inhibitor, partial curve, poor fit]	–
COC(=O)c1ccc(CSc2nnc(NCc3ccccc3)s2)o1	active: 50.1 µM	–
CCCn1c2ccc(C)cc2c2n[nH]c(=S)nc21	inconclusive: 50.1 µM [inhibitor, partial curve, poor fit]	–
CCOc1ccc(/C(=N\O)C(C)NO)cc1 (stereo not given)	inconclusive: 39.8 µM [inhibitor, single point]	–
C/C(=N\Nc1ccccc1Cl)c1ccc(-n2ccnc2)cc1	active: 10 µM	–
COc1cc(C(=O)Nc2nc3nc(-c4ccccc4)cc(=O)n3[nH]2)cc(OC)c1OC	inconclusive: 4.47 µM [inhibitor, full curve, poor fit]	–
Cn1nc(-c2ccc(N3CCOCC3)c(NS(=O)(=O)c3ccccc3)c2)c2ccccc2c1=O	–	inconclusive: -60.1% [inhibitor]
Cc1ccc(SCc2nc(-c3ccc(C(=O)NCc4ccc(Cl)cc4)cc3)oc2C)cc1	inconclusive: 6.31 µM [inhibitor, partial curve, poor fit]	–
Cc1ccccc1NC(=S)/C(=C(\[O-])c1ccc(C)c([N+](=O)[O-])c1)[n+]1ccccc1	inconclusive: 2.82 µM [inhibitor, full curve, poor fit]	–
Cc1ccn2c(Nc3ccccc3C)c(-c3ccccn3)nc2c1	inconclusive: 39.8 µM [inhibitor, single point]	–
COc1ccccc1CN=Cc1[nH]c2ccc(Br)c(Cl)c2c1O	inconclusive: 4.47 µM [inhibitor, full curve, poor fit]	–
Cc1cc(C)c(CSc2nnc(C)n3c2cc2occc23)c(C)c1	inconclusive: 8.91 µM [inhibitor, partial curve]	–
Cc1ccc(N(Cc2cc3ccc(C)cc3[nH]c2=O)C(=O)c2ccco2)cc1	inconclusive: 3.98 µM [inhibitor, single point]	–
FC(F)Sc1ccc(NC(=S)NC2CCC(NC(=S)Nc3ccc(SC(F)F)cc3)CC2)cc1 (stereo not given)	inconclusive: 6.31 µM [inhibitor, single point]	–
O=C(NC(=S)Nc1cc(-c2nc3ccccc3[nH]2)ccc1Cl)c1ccc2c(c1)OCO2	active: 44.7 µM	–
Cc1ccc(/C=C2\SC(=S)N(CCC(=O)NCCCN3CCOCC3)C2=O)cc1	inactive	–
O=C(/C=C/c1ccccc1Cl)c1ccc(O)cc1	inactive	–
COc1ccc(OCC(O)CN2CCN(Cc3ccc4c(c3)OCO4)CC2)cc1 (stereo not given)	active: 20 µM	–

Structure (SMILES)	Potency	activity, negative = inhibition
CCn1c(=O)n(CC)c2cc(N3CCCCC3)c(NC(=O)Nc3cc(C)cc(C)c3)cc21	inconclusive: 25.1 µM [inhibitor, partial curve, poor fit]	–
NCCc1nnc(SCc2ccc(F)cc2)o1	inconclusive: 79.4 µM [inhibitor, single point]	–
O=C(O)CC(NNC(=O)c1ccccc1)C(=O)Nc1cccc([N+](=O)[O-])c1 (stereo not given)	active: 50.1 µM	–
COc1ccc2c(C(=O)CN3CC(C)OC(C)C3)c[nH]c2c1 (stereo not given)	inconclusive: 7.08 µM [inhibitor, single point]	–
CCc1ccc(CCC(=O)Nc2sc3c(c2C#N)CCCC3)o1	–	inconclusive: -71.2% [inhibitor]
COc1ccccc1/C=C1\SC(=S)N(CCC(=O)N2CCCCC2CCO)C1=O (stereo not given)	inconclusive: 56.2 µM [inhibitor, single point]	–
Cc1cc(=O)[nH]c(SCC(=O)N2CCC(C(N)=O)CC2)n1	inconclusive: 1.78 µM [inhibitor, partial curve, poor fit]	–
O=C(O)CC(c1ccccc1)N1C(=O)c2cccc([N+](=O)[O-])c2C1=O (stereo not given)	inactive	–
Cc1nc(SCn2nnc3ccccc3c2=O)c2c(C)c(C)sc2n1	inconclusive: 0.794 µM [inhibitor, full curve, poor fit]	–
Cc1noc(C)c1C(=O)NCC1COc2ccccc2O1 (stereo not given)	–	inactive: -3.43% [at 2.33 µM]
CCOCCCNc1nc(C)nc2c1nnn2Cc1c(F)cccc1Cl	inactive	–
C#CCOc1ccc(C2C3=C(CC(C)(C)CC3=O)N(CC(=O)O)C3=C2C(=O)CC(C)(C)C3)cc1	inconclusive: 89.1 µM [inhibitor, single point]	–
O=[N+]([O-])c1cccc(NC(=S)NCCc2ccccc2)c1	inconclusive: 10 µM [inhibitor, partial curve]	–
O=C(c1ccc(C(=O)N2CCOCC2)nc1)N1CCOCC1	inconclusive: 39.8 µM [inhibitor, single point]	–
O=C(NCCNc1ccc(Cl)cc1[N+](=O)[O-])c1cccnc1	inconclusive: 44.7 µM [inhibitor, partial curve, poor fit]	–
O=C(NC1CCCc2ccccc21)C1CCN(S(=O)(=O)c2cnc[nH]2)CC1 (stereo not given)	inconclusive: 3.55 µM [inhibitor, full curve, poor fit]	–
Cc1cccc(-n2ncc3c(Nc4ccc(Oc5ccc(Cl)cc5)cc4)ncnc32)c1	inactive	–
OCCN1CCN(CCCc2c3c(cc4c2CCC4)CCC3)CC1	inconclusive: 89.1 µM [inhibitor, single point]	–
Cc1cc(C)c2c(N)c(C(=O)NNC(=O)c3ccccc3)sc2n1	active: 44.7 µM	–
Cc1ccc(-c2c[nH]c(=S)n2-c2ccccc2)cc1	active: 0.708 µM	–
CCc1nn(-c2ccccc2)c2nc(-c3cccc(OC)c3)c3cc(OC)c(OC)cc3c12	inactive	–
CC(C)Sc1nc(NCc2ccco2)c2c3c(sc2n1)COC(C)(C)C3	inconclusive: 31.6 µM [inhibitor, single point]	–
